Source: ChEMBL document CHEMBL4888484, “Replenishing the malaria drug discovery pipeline: Screening and hit evaluation of the MMV Hit Generation Library 1 (HGL1) against asexual blood stage Plasmodium falciparum ,using a nano luciferase reporter read-out” (2022)
Where “and” joins values, the source holds several entries; their conditions need not be identical. Equal entries are not always repeated. Out of some 150,000 compounds screened, about 540 (0.36%) showed an effect of 50% or more. The list shows a part of the results.

Test system: Plasmodium falciparum
Experiment: Primary screen in NF54 nanoGlo assay, in single point, at 2uM, 72h; a lower Z score goes with more inhibition
Format: functional, Erythrocyte
Details: timepoint 72 hour

SMILES	% Inhibition [%]	Z score	% Inhibition (2 µM)	Z score (2 µM)
CC(C)c1nc(CN2C[C@@H](c3cccc(F)c3)OCC2(C)C)no1	-12	1.83		
CCCc1nc(CS(=O)(=O)c2cncc(Br)c2)no1	-1	0.12		
O=C1NC[C@H]2O[C@H](CCOc3ccccc3C(=O)N3CCN(C4CCCC4)C[C@@H]13)CC[C@H]2n1cc(CN2CCOCC2)nn1	17	-2.01		
CCc1ccc(C2CN3C(=O)N(c4ccccc4Cl)C(=O)[C@]3(C)c3[nH]c4ccccc4c32)cc1 (some centres not stated)	9	-0.76		
c1ccc2c(c1)CCN(CCn1cccn1)C2	-6	0.79		
Cc1ncccc1NC1CCCC1S(C)(=O)=O (configuration not stated)	-17	2.11		
CC(C)Cn1cc(C(=O)NC[C@H]2CCC[C@@H](CO)C2)cn1	-6	0.89		
CCCc1nc(N2CCC(N3CCN(CC)CC3)CC2)no1	-4	0.56		
O=C(Cn1cc(-c2ccc(F)cc2)cn1)NCc1ccnc(N2CCCC2=O)c1	-6	0.97		
CCCc1cc(N2CCN(C(=O)COc3ccc(F)cc3)CC2)nc2nnc(C)n12	-6	0.85		
Nc1c2c(-c3ccc(Cl)cc3)nc(NCC3CC3)nc2nn1-c1ccc(Cl)cc1	-18	1.7		
Cc1cc(C(=O)N(CC2CCC2)CC(F)(F)F)[nH]n1	-10	1.63		
O=C(NCCNc1ccccc1)c1cccc(-n2ccnn2)c1	1	-0.17		
O=C(c1coc(COc2cccc(F)c2)n1)N1CC[C@@H]2CCCC[C@H]2C1	-7	1.14		
Cc1cc(NC(=O)N2CCCN(C)CC2)nn1-c1ccc(Cl)cc1	-13	1.64		
CC(=O)N[C@H]1C[C@H](c2nnc(CN(C)Cc3ccc4nsnc4c3)n2C)C1	-13	2.43		
COc1ccc(S(=O)(=O)NC2CCN3CCCCC23)cc1Cl (configuration not stated)	-32	3.72		
O=C(NCc1csc(=O)[nH]1)[C@H]1CCCO1	-8	0.98		
CCOC(=O)CCN[C@@H](C(=O)OCC)c1ccccc1	-8	1.58		
CCc1nc(-c2ccccc2)nc(N2CCN(C[C@@H](O)CC)CC2)c1Cc1ccc(F)cc1	-11	2.07		
COc1cc(NC(=O)N2CCC(Cn3ccnc3C(C)C)CC2)cc(OC)c1OC	0	-0.07		
CCc1ccc(C(=O)N2CCc3nnn(C4CC(C)C4)c3C2)cc1 (configuration not stated)	1	-0.19		

SMILES	% Inhibition [%]	Z score	% Inhibition (2 µM)	Z score (2 µM)
O=C(CCn1cncn1)Nc1ccc2c(c1)OCCO2	-2	0.29		
O=C(Cc1ccc(O)cc1Cl)N1CC2CC=CCC2C1 (configuration not stated)	31	-3.47		
C[C@H](NC(=O)c1cnsn1)c1nn(C)cc1O	-8	1.66		
CNC(=O)c1nnsc1-n1cnc2ccccc21	35	-3.99		
COc1cnc(NCc2cccc3c2OCC3)nc1	-20	3.05		
CCN(CC)C(=O)[C@@H]1CCCN1S(=O)(=O)CC(C)(C)CC#N	19	-2.5		
O=S(=O)(CC1CCCC1)NCC1(CO)CCOCC1	-10	1.29		
Cc1ccc2c(c1)Oc1ccc(C)cc1C(N1CCCN(C(=O)Nc3cccc(Cl)c3)CC1)=N2	2	-0.35		
CC[n+]1cc(N2CCCC2)nc(-c2ccc(Br)cc2)n1			-14% and -9%	1.22 and 1.33
Cc1cc(N(C)Cc2ccc(N)nc2)ncn1	-7	0.84		
c1csc(-c2ccnc3nc(-c4ccncc4)nn23)c1	-12	1.63		
CCN(CC)S(=O)(=O)N(C)Cc1cc(Br)ccc1F	0	0.02		
CN(C)c1cccc(C(=O)N2C[C@@H](CN3CCCCCC3)[C@@H](CO)C2)c1	-10	1.28		
COc1ccc(CNC(=O)c2sc(Nc3ccc(C)cc3C)nc2C)c(OC)c1	39	-4.4		
O=C1NC2(Cc3ccccc3C2)C(=O)N1CC1(c2cccc(F)c2)CC1	-13	2		
CCn1cc(Cl)c(-c2nnc(-c3cccc(C(F)(F)F)c3)o2)n1	30	0.02		
O=C(CCc1ccco1)Nc1ccc2c(c1)OCCCO2	-6	0.94		
COc1ccc(NC(=O)c2ccccc2NC(=O)CN(C)Cc2ccc(OC)cc2OC)cc1	-12	2.28		
COCCOc1ccc(-c2ccc(N(C)C)nn2)cc1	-8	0.96		
COc1ccc(-c2nc(N3CCCC3)nc3nn(C)c(N)c23)cc1	-3	0.48		
COCCOC1CCN(Cc2cc(C(C)(C)C)[nH]n2)CC1	3	-0.63		
O=C(Cn1c(-c2ccncc2)nc2ccccc21)Nc1nc2ccccc2s1	13	-1.69		

SMILES	% Inhibition [%]	Z score	% Inhibition (2 µM)	Z score (2 µM)
CCCN1CCN(C(=O)N[C@@H](Cc2ccccc2)c2ccccc2)CC1=O	-15	2.08		
O=C(NC1(c2ncon2)CCOCC1)c1cc2ccccn2c1	-4	0.42		
C[C@H]1COCCN1C(=O)c1n[nH]c2ccccc12	-1	0.15		
CNS(=O)(=O)CC(=O)N(Cc1cc2c(s1)CCC2)C(C)C	-15	1.37		
CCOC(=O)C(NC(=O)c1cccnc1OCC)C(=O)OCC	-13	2.01		
Cc1c([C@H](C)NC(=O)c2cc(C3CC3)n(C)n2)cnn1C	-7	1.15		
COc1cccc(-n2nc3c(=O)n(Cc4ccccc4Cl)nc(C)c3c2C)c1	1	-0.16		
CCC1CN(C(=O)NC2CCCC23OCCO3)CC(C)O1 (configuration not stated)	-1	0.14		
O=C(NCc1cc2n(n1)CCCNC2)c1ccc2c3c([nH]c2c1)CCCC3	-4	0.68		
COc1cc2nc(C)sc2cc1NC(=O)C1C2C=CC(C2)C1C(=O)O (configuration not stated)	34	-3.86		
CCCc1cc(Nc2ccc(C(=O)NC[C@H]3CCCO3)cc2)n2nc(-c3cccnc3)nc2n1	40	-5.32		
CCc1onc(C)c1[C@@H]1CCCN1C(=O)c1ccc(C)cc1	-7	0.88		
Cc1cccc(C)c1OC[C@H](N)C(C)(C)C	-3	0.29		
CCCC(=O)Nc1cc(N(C)C)nc2c1CCC2	-12	1.77		
O=C(c1cccc(-n2ccnn2)c1)N1CCC(n2ccnn2)CC1	-4	0.65		
CN(C)c1ccc(CNc2ncnc3sccc23)cn1	-23	3.25		
CCN(CC)S(=O)(=O)c1ccc(N2CCOCC2)c(NC(=O)CCC2CCCC2)c1	-4	0.3		
Nc1nnnn1NC/C=C/c1ccc(Cl)cc1	2	-0.21		
COc1cccc2ncnc(N3CC(=O)N(C)[C@@H](C)C3)c12	-5	0.97		
CC(C)(C)OC(=O)N[C@@H]1c2ccccc2NC1(C)C	-2	0.16		
O=C(NC1CC2(C1)CC2(F)F)[C@H]1NCC12CCCC2 (some centres not stated)	-3	0.31		
CCOC(=O)c1ccc(N[C@H](c2ccc(Cl)cc2)c2c(C)n(C)n(-c3ccccc3)c2=O)cc1	-2	0.21		

SMILES	% Inhibition [%]	Z score	% Inhibition (2 µM)	Z score (2 µM)
Cc1cc(C(=O)N(Cc2cocn2)Cc2cocn2)nc(C)n1	-10	1.77		
COc1cc(CNc2nc3ccccc3n2CCN2CCOCC2)cc(OC)c1OC	-14	1.25		
N#Cc1c(N2CCCC2)ncnc1N1CCN(c2ccccn2)CC1	-12	1.2		
Cc1ccnc(NC(=O)CN(C)S(C)(=O)=O)c1Br	9	-1.67		
CCN(CCC(F)(F)F)C(=O)c1[nH]nc(C2CC2)c1Cl	-1	0.07		
O=C(N[C@H]1CCCc2ccccc21)C1CCOCC1	-8	1.48		
CCN1CCCc2cc(CCNC(=O)C(=O)NCC(C)C)ccc21	1	-0.17		
Cn1nc(C2CC2)cc1NC(=O)N[C@H](c1cccnc1)C(F)(F)F	2	-0.25		
Cc1ccc(C(=O)N2CCN(C(=O)c3ccsc3)CC2)cn1	-15	1.56		
Cc1onc(-c2ccccc2)c1C(=O)N1CC(C)S(=O)(=O)C(C)C1 (configuration not stated)	-6	0.74		
Nc1ccc(-c2sc(N)nc2-c2ccc(Oc3ccccc3)cc2)cc1	-7	1.05		
Cc1nnc(NC(=O)[C@@H]2CCCN2c2ncnc3sccc23)s1	-3	0.54		
CC(C)(C)OC(=O)N1CCC[C@H]1c1nnc(NCc2ccco2)o1	-7	1.05		
O=C(c1ccccc1)N(Cc1cc(-c2ccccc2)on1)C1CC1	-10	1.18		
CC(C)[C@@H]1N(C(=O)Nc2ccccc2N2CCCCC2=O)CC12CC=CC2	-9	1.73		
Cc1c(F)cccc1NC(=O)Cc1nc(Cc2ccc(Cl)cc2)n[nH]1	-5	0.62		
CCn1nc(C)c(CNS(=O)(=O)c2ccc(Cl)s2)c1C	-6	1.08		
CCOc1ncc(C(=O)N(CC)c2ccc(OC)nc2)cc1Cl	-12	1.04		
Cc1ccccc1C(=O)Nc1sc(-c2ccccc2)c(C)c1C(=O)N1CCOCC1	8	-1.04		
O[C@H]1CNCCN(Cc2cnc(-c3cccc4ccccc34)nc2)C1	11	-1.48		
